# In all, about 310,000 compounds went through this assay and about 14,000 (4.5%) showed an effect of 50% or more. Effects have a minus sign here. Some of the results follow.
# Target: human ether-à-go-go-related gene (hERG) potassium channel (human, UniProt Q12809)
# Assay: primary screen, population patch clamp on CHO cells stably expressing hERG
# 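Further: peak tail current of the secondary pulse compared with the same well before compound.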
# Chain of human ether-à-go-go-related gene (hERG) potassium channel (Q12809 whole entry, looked up): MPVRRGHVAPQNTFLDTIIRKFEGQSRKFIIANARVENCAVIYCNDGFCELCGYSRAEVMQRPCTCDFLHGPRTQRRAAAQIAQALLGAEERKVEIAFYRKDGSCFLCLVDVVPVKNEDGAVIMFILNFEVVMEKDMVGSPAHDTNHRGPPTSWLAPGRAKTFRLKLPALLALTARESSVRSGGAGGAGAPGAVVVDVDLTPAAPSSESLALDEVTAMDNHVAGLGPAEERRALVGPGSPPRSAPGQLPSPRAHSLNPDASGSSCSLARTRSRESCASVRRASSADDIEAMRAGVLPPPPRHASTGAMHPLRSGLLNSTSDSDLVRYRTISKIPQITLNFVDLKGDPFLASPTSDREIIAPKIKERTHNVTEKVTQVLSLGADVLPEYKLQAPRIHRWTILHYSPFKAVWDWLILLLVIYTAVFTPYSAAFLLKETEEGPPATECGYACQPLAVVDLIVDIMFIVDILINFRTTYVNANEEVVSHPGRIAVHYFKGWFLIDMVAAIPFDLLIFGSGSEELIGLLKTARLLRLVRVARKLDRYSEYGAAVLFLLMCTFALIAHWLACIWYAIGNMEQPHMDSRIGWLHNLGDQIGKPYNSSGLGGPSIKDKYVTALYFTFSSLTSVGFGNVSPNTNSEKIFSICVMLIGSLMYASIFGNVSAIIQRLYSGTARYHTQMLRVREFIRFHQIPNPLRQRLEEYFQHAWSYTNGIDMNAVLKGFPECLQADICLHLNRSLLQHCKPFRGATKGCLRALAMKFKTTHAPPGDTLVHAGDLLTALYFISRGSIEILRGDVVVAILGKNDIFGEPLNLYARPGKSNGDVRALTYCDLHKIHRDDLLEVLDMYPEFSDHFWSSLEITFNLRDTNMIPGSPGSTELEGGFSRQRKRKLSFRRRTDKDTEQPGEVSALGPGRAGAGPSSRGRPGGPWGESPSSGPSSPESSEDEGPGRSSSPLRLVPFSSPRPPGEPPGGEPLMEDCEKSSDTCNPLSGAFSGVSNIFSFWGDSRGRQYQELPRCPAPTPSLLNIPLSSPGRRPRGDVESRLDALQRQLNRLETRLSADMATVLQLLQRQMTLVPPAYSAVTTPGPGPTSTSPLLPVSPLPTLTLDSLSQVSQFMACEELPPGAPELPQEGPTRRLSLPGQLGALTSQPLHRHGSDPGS
row,SMILES,"hERG current change (%, negative = inhibition) at 10uM"
1,CSc1ncc(Cl)c(C(=O)Nc2ccc(NC(C)=O)cc2)n1,-16.5%
2,CCn1c(CSc2nc(C)cs2)nc2cc(S(=O)(=O)N(C)C)ccc21,-13.8%
3,Cc1cccnc1Sc1c([N+](=O)[O-])ncn1C,9.1%
4,O=C(NC(=S)Nc1ccc(Br)cn1)c1cccs1,17.3%
5,Nc1c(Cl)ncnc1NCc1cccnc1,13.1%
6,CCOC(=O)C1=C(C)NC(C)=C(C(=O)OCC)C1C(=O)OCC(=O)NC1(C#N)CCCCC1,-22.1%
7,COc1ccc(NC(=O)Cn2nc(C(F)(F)F)c3c2CCCC3)cc1OC,-9.93%
8,O=C(CN1CCOCC1)N/N=C/c1cc2ccccc2nc1Cl,-7.14%
9,BrC(=C\c1ccccc1)/C=N/Nc1ccc2nncn2n1,-21.6%
10,COc1ccc(CC(=O)NNC(=O)CCc2ccccc2)cc1,10.7%
11,CCCCn1nnnc1SCC(=O)Nc1cccc(C)n1,-15.2%
12,O=C(Nc1ccc(Br)cc1Cl)NC1CC1,1.3%
13,Cc1ccc(-c2nc3ccccc3o2)cc1NC(=O)c1ccc2c(c1)OCO2,-13.3%
14,O=C(N/N=C/c1ccc([N+](=O)[O-])s1)c1cccnc1,5.77%
15,COc1ccc(CCN(C)C(=O)C2CCCN(C3CCN(Cc4ccccc4)CC3)C2)cc1OC (stereo not shown),-17.1%
16,CN1C(=O)C2(C(C#N)=C(N)N(c3ccc(Cl)cc3)C3=C2C(=O)CC(C)(C)C3)c2ccccc21 (stereo not shown),-6.79%
17,CC1=C(C(=O)OCCOC(C)C)C(c2cc3c(cc2Br)OCO3)CC(=O)N1 (stereo not shown),0.66%
18,COc1ccc(NC(=O)c2ccco2)c(OC)c1,16.9%
19,O=C(Nc1ccc(Cl)cn1)c1cccc(S(=O)(=O)N2CCOCC2)c1,-65.4%
20,COc1ccc(-c2cc(C(=O)NCC3CCCO3)c3ccccc3n2)cc1 (stereo not shown),-10.7%
21,CCOC(=O)C1CCN(C(=O)c2c(-c3ccccc3)noc2C)CC1,22.2%
22,O=C(CNC(=O)c1ccco1)NCC(=O)OCc1ccccc1Br,-0.53%

row,SMILES,"hERG current change (%, negative = inhibition) at 10uM"
1,C/C(=N\NC(=O)c1ccccc1F)c1ccccn1,-12.1%
2,CCN(C(=O)CSc1nc(-c2ccccc2)c(-c2ccccc2)[nH]1)C1CCS(=O)(=O)C1 (stereo not shown),-21.7%
3,Cc1cc(C)c(O)c(-c2cc(C(=O)NCc3ccccc3)[nH]n2)c1,9.04%
4,CC(OC(=O)Cn1[nH]c(=O)c2ccccc2c1=O)C(=O)Nc1ccc(F)cc1 (stereo not shown),-6.34%
5,O=C(CSCc1ccc(F)cc1)Nc1ccc(F)cc1,-18.3%
6,CCCCn1nc(C(=O)Nc2cc(S(=O)(=O)N(C)C)ccc2C)c2ccccc2c1=O,-2.39%
7,O=[N+]([O-])c1ccc(S(=O)(=O)Nc2nc3ccccc3nc2Nc2ccccc2)cc1,2.57%
8,CC(=O)Nc1ccc(OCC(O)Cn2c(C(C)C)nc3ccccc32)cc1 (stereo not shown),37.5%
9,Cc1nc(N2CCCCC2C)c2c(C)c(C(=O)Nc3cccc(C(F)(F)F)c3)sc2n1 (stereo not shown),12.5%
10,COc1ccc(/C=N/Nc2cc(C)nc(N3CCOCC3)n2)cc1,4.93%
11,CC(C)CC(=O)Nc1ccc(C(=O)Nc2cccc(O)c2)cc1,27.3%
12,O=[N+]([O-])c1cccnc1Oc1ccccc1F,5.89%
13,CCC1CCCCN1S(=O)(=O)c1ccc(C(=O)Nc2nnc(C3=COCCO3)o2)cc1 (stereo not shown),2.66%
14,CCOC(=O)CC1CCCCN1Cc1cn[nH]c1-c1ccc(F)cc1F (stereo not shown),-64.8%
15,COC(=O)C1CC(O)CN1S(=O)(=O)c1ccc2ccccc2c1 (stereo not shown),-3.41%
16,CN(C(=O)COC(=O)C1CCN(S(=O)(=O)c2ccc3c(c2)OCCO3)CC1)C1CCCCC1,-17.5%
17,Brc1ccc(CSc2ncnc3nc[nH]c23)cc1,-10.3%
18,Cc1ccc(NC(=O)NC(=O)N(C2CCCCC2)S(=O)(=O)c2ccccc2)cc1,-1.76%
19,CCc1nc2ccccc2n1Cc1ccccc1OC,-10.1%
20,CN(C)c1ccc(NC(=O)COC(=O)c2cc(=O)c3ccccc3o2)cc1,12%
21,O=C(COC(=O)c1n[nH]c2ccccc12)NC(=O)NCc1ccco1,-7.44%

# — paper PMC4336329 (PLoS ONE, 2015)
